Assay results from PubChem BioAssay (NCATS).
This list was built around the results that the source calls inconclusive (neither active nor inactive); the mix of calls is not that of the screen. Entries that show only a call come without a potency. For some assays here: A potency beside an inconclusive call is a rough fit, not a confirmed value. Activity calls are given as the source filed them. Unless noted, calls follow the shape of the dose curve; as a rule, active = well fitted curve in the direction sought with a large enough effect; inconclusive = small, poorly fitted or top-dose-only effect, or another doubt; inactive = no such curve, though single readings can be large; an effect the other way counts as inactive or inconclusive.

Legend:
[1] = P-glycoprotein substrates identified in KB-8-5-11 adenocarcinoma cell line, qHTS therapeutic library screen (AID 1346987); conditions: activity change, negative = cytotoxicity: at 44.5 µM (top of the series); also: nearly all actives have a fitted effect of over 65% in size
Method in brief: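 KB-8-5-11, a colchicine-selected P-gp-overexpressing KB-3-1 subline, was grown without colchicine for the assay. Cells were seeded at 500 cells/well, dosed in concentration-response and incubated 72 h at 37 degree C, 5% CO2. Viability was read by CellTiter-Glo luminescence.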

[2] = biological target: Glutathione peroxidase 1 (Homo sapiens) (UniProt P07203); assay: Primary qHTS Assay for Inhibitors of Recombinant Selenoprotein Glutathione Peroxidase 1 (GPX1) (AID 1845191); also: nearly all actives have a fitted effect of over 65% in size
Method in brief: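 GR-coupled assay: compounds preincubated 30 min at room temperature with GPX1, then reaction started with CHP; final 10 nM GPX1, 1 mM GSH, 0.5 mM CHP, 0.5 mM NADPH, 100 nM GR, 0.01% BSA, pH 7.5 Tris buffer. NADPH fluorescence (340/450 nm) read at 0 and 15 min.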

[3] = system: Hek293T; assay: Primary qHTS to identify gynecologic anti-cancer compounds using libraries of approved drugs and bioactive compounds (AID 1345084); conditions: Gynecologic cancer cell panel viability, ATPlite luminescence, 48 h, control line for the selectivity index; series mostly up to 57.5 µM; also: nearly all actives have a fitted effect of over 55% in size; also: potency is read from the fitted curve at half-maximal effect
Method in brief: (§1)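 Cytotoxicity screen measuring ATP content by luciferase luminescence. Each compound is applied at five concentrations for 48 h at 37 C with 5% CO2.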

[4] = system: JEG-3; assay: as above; conditions: Gynecologic cancer cell panel viability, ATPlite luminescence, 48 h; series mostly up to 57.5 µM
Method in brief: as §1

[5] = system: SKOV3; assay: as above; conditions: Gynecologic cancer cell panel viability, ATPlite luminescence, 48 h; series mostly up to 57.5 µM
Method in brief: as §1

[6] = system: Tov112D; assay: as above; conditions: Gynecologic cancer cell panel viability, ATPlite luminescence, 48 h; series mostly up to 57.5 µM
Method in brief: as §1

[7] = Cell Viability - H-4-II-E (AID 543);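 also: cells exposed to compound for 40 hours; nearly all actives have a fitted effect of over 35% in size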
Method in brief: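 Rat hepatoma H-4-II-E cells, 1500 per well, treated 40 h at 37 °C in complete medium. Cellular ATP read by CellTiter-Glo luminescence; AC50 from Hill fits of concentration-response.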

[8] = MultiTox-Fluor Cytotoxicity Assay - LYMP1-002 - Live Cells (AID 955)
Method in brief: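 Human lymphoblastoid LYMP1-002 cells, 2500/well, treated 16 h at 37 C in complete medium. Live-cell protease activity via GF-AFC fluorescence (Ex/Em 405/510) after 60 min reagent incubation; AC50 from Hill fits.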

[9] = biological target: Peroxisome proliferator-activated receptor delta (Homo sapiens) (UniProt Q03181); assay: qHTS assay for small molecule agonists of peroxisome proliferator-activated receptor delta signaling (AID 588534; calls by dose curve); conditions: HEK293T PPARdelta-UAS-bla, beta-lactamase ratio, 18 h; activation: at 76.7 µM (top of the series)
Method in brief: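 Cells carrying a PPAR-delta beta-lactamase reporter were treated with compounds for 18 h at 37 °C in agonist mode. CCF4 fluorescence was read after 2 h; EC50 and efficacy from Hill fits.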

[10] = qHTS assay for small molecule agonists of the antioxidant response element (ARE) signaling pathway (AID 651741; active = well fitted activation curve with a large enough effect in the signal ratio; inconclusive = small, poorly fitted or top-dose-only effect, or effect the other way, or a change in a side signal; the % refers to the signal ratio; also: potency is read from the fitted curve at half-maximal effect); conditions: HepG2 ARE-bla reporter, beta-lactamase FRET ratio, 16 h; activation: at 96 µM (top of the series)
Method in brief: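 CellSensor ARE-bla HepG2 cells (2,000/well) carrying ARE-driven beta-lactamase, exposed 16 h at 37 C. LiveBLAzer B/G FRET substrate added for 2 h at room temperature; fluorescence intensity read.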

[11] = qHTS assay for small molecule activators of the p53 signaling pathway (AID 651743; active = well fitted activation curve with a large enough effect in the signal ratio, not every such curve was filed as active; inconclusive = small, poorly fitted or top-dose-only effect, or a change in a side signal; the % refers to the signal ratio); conditions: HCT-116 p53RE-bla, beta-lactamase FRET ratio, 16 h; activation: active compounds read high
Method in brief: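 p53RE-bla HCT-116 cells carrying a beta-lactamase reporter under p53 response elements were exposed to compounds for 16 hours at 37 C. Reporter activity read as fluorescence after 2 hours at room temperature with LiveBLAzer B/G FRET substrate.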

[12] = qHTS assay for small molecule activators of the nuclear factor-kappa B (NF-kB) signaling pathway (AID 651749; active = well fitted activation curve with a large enough effect in the signal ratio; inconclusive = small, poorly fitted or top-dose-only effect, or a change in a side signal; the % refers to the signal ratio); conditions: NF-kB-bla ME-180 cells, beta-lactamase FRET ratio, 16 h; activation: active compounds read high
Method in brief: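 NF-kB-bla ME-180 cells carrying a beta-lactamase reporter under an NF-kB response element, 2,000 cells/well, exposed to compound for 16 hr at 37C; FRET-based beta-lactamase fluorescence read-out of pathway activation.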

[13] = qHTS assay to identify small molecules that stimulate interleukin-8 (IL-8) secretion (AID 651758; active = well fitted activation curve with a large enough effect in the signal ratio; inconclusive = small, poorly fitted or top-dose-only effect, or effect the other way, or a change in a side signal; the % refers to the signal ratio); conditions: HTRF ratio (665/615); activation: at 92.2 µM (top of the series)
Method in brief: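 THP-1 cells (2000/well) exposed to compound 16 h at 37 C; secreted IL-8 then detected by HTRF with cryptate- and XL665-labelled anti-IL-8 antibody pair after 1-3 h at room temperature.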

[14] = qHTS of pediatric cancer cell lines to identify multiple opportunities for drug repurposing: Primary screen for A673 cells (AID 1347092); conditions: A673 Ewing sarcoma viability, CellTiter-Glo ATP luminescence, 48 h; activity change, negative = cytotoxic: at 46 µM (top of the series); also: nearly all actives have a fitted effect of over 45% in size
Method in brief: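 48 h compound exposure, A673, 500-1,000 cells/well, 37 degrees C/5% CO2. MIPE: 11-point, 0.78 nM-46 µM; NPC: 8-point, 0.59 nM-46 µM (final). Readout CellTiter-Glo luminescence after 15 min RT.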

[15] = qHTS of pediatric cancer cell lines to identify multiple opportunities for drug repurposing: Primary screen for SK-N-MC cells (AID 1347093); conditions: SK-N-MC viability, CellTiter-Glo luminescence, 48 h; activity change, negative = cytotoxic: at 46 µM (top of the series)
Method in brief: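 Metabolically active cells were quantified by ATP-dependent luminescence (CellTiter-Glo, 15 min at room temperature) following 48 h treatment. Cells had been plated at 500-1,000 per well and settled for 5 h beforehand.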

[16] = qHTS of pediatric cancer cell lines to identify multiple opportunities for drug repurposing: Primary screen for U-2 OS cells (AID 1347096); also: nearly all actives have a fitted effect of over 50% in size
Method in brief: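 Viability after 48 h compound treatment at 37C, 500-1,000 cells/well, read as ATP luminescence with CellTiter-Glo. Primary screens used 11-point (MIPE, 0.78 nM-46 µM) or 8-point (NPC, 0.59 nM-46 µM) final concentrations; follow-up screens used 11-point dilutions.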

[17] = qHTS of pediatric cancer cell lines to identify multiple opportunities for drug repurposing: Primary screen for Saos-2 cells (AID 1347097); conditions: Saos-2 viability, CellTiter-Glo ATP luminescence, 48 h; activity change, negative = cytotoxic: at 46 µM (top of the series); also: nearly all actives have a fitted effect of over 40% in size
Method in brief: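 Following a 5-hour attachment period, cells at 500-1,000/well received compounds and were cultured for 48 hours. CellTiter-Glo was added and luminescence read to estimate viable, metabolically active cells.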

[18] = Primary qHTS for small molecule stabilizers of the endoplasmic reticulum resident proteome: Secreted ER Calcium Modulated Protein (SERCaMP) assay (AID 1508630); conditions: SH-SY5Y GLuc-SERCaMP (Gaussia luciferase released on ER calcium loss) secretion, thapsigargin, luminescence; activity change, negative = inhibition: at 38.4 µM (top of the series) unless noted; also: potency is read from the fitted curve at half-maximal effect
Method in brief: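 GLuc-SERCaMP-expressing SH-SY5Y cells, pretreated 16 h with compound, are challenged with thapsigargin to empty ER calcium stores; after 4 h, coelenterazine is added directly to the medium and luminescence is imaged.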

[19] = biological target: Cytochrome P450 2D6 (Homo sapiens) (UniProt P10635); assay: Cytochrome P450 family 2 subfamily D member 6 (CYP2D6) small molecule antagonists: luciferase biochemical (cell-free) qHTS assay (AID 1645840; active = well fitted curve in the direction sought with a large enough effect in the repeat runs; inconclusive = weak or mixed curves; inactive = no such curve, though single readings can be large; an effect the other way counts as inactive or inconclusive; also: nearly all actives have a fitted effect of over 55% in size)
Method in brief: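 P450-Glo luminescent screen: recombinant CYP2D6 enzyme–proluciferin substrate mix preincubated with compound 10 min at room temperature, then NADPH regeneration added for 1 h at room temperature. Detection reagent added for 20 min; luciferin light read as relative luminescence units.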

[20] = system: HeLa; assay: Primary qHTS to identify gynecologic anti-cancer compounds using libraries of approved drugs and bioactive compounds (AID 1345084); conditions: Gynecologic cancer cell panel viability, ATPlite luminescence, 48 h; series mostly up to 57.5 µM; also: nearly all actives have a fitted effect of over 55% in size; also: potency is read from the fitted curve at half-maximal effect
Method in brief: as §1
Tags tell the direction and shape of the fitted curve.

Chain of UniProt P07203 (P07203 whole entry, looked up): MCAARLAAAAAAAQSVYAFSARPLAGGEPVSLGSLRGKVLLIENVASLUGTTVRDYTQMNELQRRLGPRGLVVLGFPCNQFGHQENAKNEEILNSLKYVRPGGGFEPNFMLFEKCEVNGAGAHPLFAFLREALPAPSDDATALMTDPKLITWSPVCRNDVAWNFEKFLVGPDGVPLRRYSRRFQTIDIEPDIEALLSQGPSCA
Chain of UniProt Q03181 (Q03181 whole entry, looked up): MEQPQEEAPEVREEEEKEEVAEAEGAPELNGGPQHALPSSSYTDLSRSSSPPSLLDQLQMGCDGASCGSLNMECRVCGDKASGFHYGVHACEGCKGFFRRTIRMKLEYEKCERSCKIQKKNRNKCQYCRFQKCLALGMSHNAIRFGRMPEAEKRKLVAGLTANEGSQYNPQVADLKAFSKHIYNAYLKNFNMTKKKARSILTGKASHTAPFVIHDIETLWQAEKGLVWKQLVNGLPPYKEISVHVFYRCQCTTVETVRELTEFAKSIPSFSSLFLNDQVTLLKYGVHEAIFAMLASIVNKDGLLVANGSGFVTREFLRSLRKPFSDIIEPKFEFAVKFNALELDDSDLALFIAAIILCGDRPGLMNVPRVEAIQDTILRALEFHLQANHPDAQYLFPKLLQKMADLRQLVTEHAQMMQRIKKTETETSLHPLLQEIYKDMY
Chain of UniProt P10635 (P10635 whole entry, looked up): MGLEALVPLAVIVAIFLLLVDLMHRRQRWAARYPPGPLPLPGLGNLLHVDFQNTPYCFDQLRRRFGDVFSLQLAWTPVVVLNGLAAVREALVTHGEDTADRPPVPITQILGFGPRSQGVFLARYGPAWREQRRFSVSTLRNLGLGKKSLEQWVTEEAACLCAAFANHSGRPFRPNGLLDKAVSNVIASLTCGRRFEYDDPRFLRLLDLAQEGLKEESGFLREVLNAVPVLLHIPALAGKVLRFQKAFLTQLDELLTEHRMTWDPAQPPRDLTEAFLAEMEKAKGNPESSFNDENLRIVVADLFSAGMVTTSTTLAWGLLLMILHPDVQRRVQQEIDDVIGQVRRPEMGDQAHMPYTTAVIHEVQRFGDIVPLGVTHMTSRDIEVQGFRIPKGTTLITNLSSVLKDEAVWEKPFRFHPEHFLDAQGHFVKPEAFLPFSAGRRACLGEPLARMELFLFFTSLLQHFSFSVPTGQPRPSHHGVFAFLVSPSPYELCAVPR

SMILES	Potency [1]	Potency [2]	Potency [3]	Potency [4]	Potency [5]	Potency [6]	Potency [7]	Potency [8]	Potency [9]	Potency [10]	activation [11]	activation [12]	activation [13]	Potency [14]	Potency [15]	Potency [16]	Potency [17]	Potency [18]	Potency [19]	Potency [20]
CC(=O)OCC1=C[C@H](O)[C@@H]2C(C(=O)O)=CO[C@@H](O[C@@H]3O[C@H](CO)[C@@H](O)[C@H](O)[C@H]3O)[C@H]12	inactive	inactive	inactive	inactive	inconclusive: 0.316 µM [rising, partial curve, poor fit]	inactive														
O=C(O)/C=C\C(=O)O							inactive	inactive	inactive	inconclusive: 66.8 µM [activator, single point]	inactive: -1.58%	inactive: -0.21%	inconclusive: 7.85%	inactive	inactive	inactive	inactive	inconclusive: 11.2 µM [inhibitor, partial curve, poor fit]	inactive	inactive
